In all, about 220,000 compounds went through this assay and about 16,000 (7.3%) were called active. Inconclusive results, whose numbers are uncertain, are shown with a selection of clear calls. Calls follow the shape of the dose curve; as a rule, active = well fitted inhibition curve with a large enough effect (not every such curve was filed as active); inconclusive = small, poorly fitted or top-dose-only effect, or another doubt; inactive = no such curve, though single readings can be large or run the other way. No potency is given beside an inconclusive call; the fits are too rough.
molecular target: Aldehyde dehydrogenase 1A1 (Homo sapiens) (UniProt P00352); assay: qHTS Assay for Inhibitors of Aldehyde Dehydrogenase 1 (ALDH1A1); settings: Purified ALDH1A1, NADH fluorescence, propionaldehyde substrate; series mostly up to 75.3 µM;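 as to activity, negative = inhibition: plate controls were no enzyme wells and a reference inhibitor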
Sequence of UniProt P00352 (P00352 whole entry, looked up): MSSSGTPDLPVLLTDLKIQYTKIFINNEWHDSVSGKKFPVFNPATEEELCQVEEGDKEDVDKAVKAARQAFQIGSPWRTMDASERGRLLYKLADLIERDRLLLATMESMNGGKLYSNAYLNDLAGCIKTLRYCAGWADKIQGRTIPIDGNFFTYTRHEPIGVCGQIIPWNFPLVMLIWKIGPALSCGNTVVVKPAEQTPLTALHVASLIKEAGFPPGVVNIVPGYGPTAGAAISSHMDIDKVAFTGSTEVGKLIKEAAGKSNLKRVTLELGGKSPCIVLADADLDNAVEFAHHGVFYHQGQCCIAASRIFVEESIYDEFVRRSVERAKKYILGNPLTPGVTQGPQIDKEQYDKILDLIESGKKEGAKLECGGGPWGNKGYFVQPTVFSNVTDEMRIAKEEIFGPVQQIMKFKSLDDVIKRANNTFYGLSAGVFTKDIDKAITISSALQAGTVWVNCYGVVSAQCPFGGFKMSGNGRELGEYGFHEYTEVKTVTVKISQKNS
Potency is read from the fitted curve at half-maximal effect; tags tell the direction and shape of the fitted curve.

| SMILES | activity, negative = inhibition | Potency |
| --- | --- | --- |
| Nc1ccccc1CCCC(=O)O | inactive: 8.92% [at 13.5 µM] |  |
| COCCCn1c(Cc2ccccc2)nnc1SCC(=O)N1CCCCC1 |  | inconclusive [inhibitor, single point] |
| CCC(CC)NC(=O)/C=C/c1cccc([N+](=O)[O-])c1 |  | inactive |
| CCCCN(C)CCNC(=O)CSCc1ccc(C)cc1 |  | inactive |
| O=C(Nc1ccc2c(c1)OCO2)c1ccc2c(c1)OCO2 |  | inconclusive [inhibitor, single point] |
| Clc1ccc(Cn2ncc3c(NCc4ccccc4)ncnc32)c(Cl)c1 |  | inconclusive [inhibitor, single point] |
| Cn1c(CCN2CCCCC2)nc2cc([N+](=O)[O-])ccc21 |  | inconclusive [inhibitor, single point] |
| CC1Cc2ccccc2N1C(=O)COC(=O)C1(c2ccccc2F)CCCC1 (stereo unspecified) |  | inactive |
| Nc1ccc(Cc2nc3c(ccc4ccccc43)[nH]2)cc1 |  | inconclusive [inhibitor, single point] |
| COc1ccc2nc3sc(C(=O)N4CCN(C)CC4)cc3cc2c1 |  | inconclusive [inhibitor, single point] |
| COC1C=CO[C@@]2(C)Oc3c(C)c(O)c4c(O)c(c5c(nc6cc(C)ccn65)c4c3C2=O)NC(=O)/C(C)=C\C=CC(C)C(O)[C@@H](C)C(O)C(C)[C@@H](OC(C)=O)C1C (stereo partly specified) |  | inactive |
| O=C(c1cc(-c2ccco2)on1)N1CCN(C(c2ccccc2)c2ccccc2)CC1 |  | inconclusive [inhibitor, single point] |
| O=C(/C=C/c1ccccc1[N+](=O)[O-])NC1CCCC1 |  | active: 14.1 µM |
| O=C(Nc1ccc(SC(F)(F)F)cc1)c1ccccn1 |  | inactive |
| O=C(CCSc1ccccc1)Nc1ncccn1 |  | inactive |
| CC(C)(C)N1C(=O)Cc2c1nc(N)c1c(N)nc(N3CCCCC3CO)c(C#N)c21 (stereo unspecified) |  | inconclusive [inhibitor, partial curve] |
| Cc1cc2cc(CN(Cc3cccs3)C(=S)NCC3CCCO3)c(=O)[nH]c2cc1C (stereo unspecified) |  | inconclusive [inhibitor, single point] |
| CC(C)n1cc(/C=C2\NC(=O)N(c3cccc(Cl)c3)C2=O)c2ccccc21 |  | inconclusive [inhibitor, single point] |
| O=C(Nc1ccc(N2CCCCC2)c(Cl)c1)c1cccnc1 |  | inconclusive [inhibitor, single point] |
| COC(=O)CSc1nc(C)cc(C)c1C#N |  | inactive |
| CCOC(=O)c1cc(NC(=O)c2ccoc2C)cc(C(=O)OCC)c1 |  | active: 6.31 µM |
| NCC1CCCCC1CC(=O)O (stereo unspecified) |  | inactive |
| C#CC(C)(CC)NC(=O)c1cc2cccc(CC=C)c2oc1=O (stereo unspecified) |  | inconclusive [inhibitor, partial curve] |
| COc1ccc(C(=O)NC(=S)Nc2ccccc2[N+](=O)[O-])cc1OC |  | inconclusive [inhibitor, single point] |
| CCOC(=O)C1(C)/C(=N/Nc2ccc(S(N)(=O)=O)cc2)C(=O)C(=O)N1c1ccccc1 (stereo unspecified) |  | active: 17.8 µM |
| COc1cccc(NC2C=CS(=O)(=O)C2)c1 (stereo unspecified) |  | inconclusive [inhibitor, single point] |

| SMILES | activity, negative = inhibition | Potency |
| --- | --- | --- |
| O=C(CSc1nc2ccccc2s1)N/N=C/c1ccco1 |  | active: 20 µM |
| CC(C)(C)C(=O)N=C1SC2CS(=O)(=O)CC2N1c1ccc2c(c1)OCO2 (stereo unspecified) |  | inactive |
| OC[C@@H]1[C@@H](c2ccc(Cl)cc2)C(c2ccc(F)cc2)=NN1c1ccccc1 |  | inconclusive [inhibitor, partial curve] |
| Cc1ccc(C(=O)Nc2cccnc2N2CCN(C)CC2)cc1 |  | inactive |
| CCN(Cc1ccccc1)S(=O)(=O)c1cc(C(=O)NC2CCCCCC2)ccc1OC |  | inconclusive [inhibitor, partial curve] |
| COC(=O)c1ccccc1NC(=O)c1ccc(-c2ccc(Br)cc2)o1 |  | inconclusive [inhibitor, single point] |
| CS(=O)(=O)N(CC(=O)NCc1ccncc1)C1CCCCC1 |  | inactive |
| COc1ccc(-c2c3c(=O)n(C)c(=O)n(C)c3cn2C2CCCCC2)cc1 |  | inconclusive [inhibitor, partial curve] |
| NC(=O)c1c(NC(=O)c2cnccn2)sc2c1CCCC2 |  | active: 20 µM |
| O=C(CCN1C(=O)c2ccccc2C1=O)Nc1ccc2c(c1)OCCO2 |  | inconclusive [inhibitor, single point] |
| CCOC(=O)c1[nH]c2ccc(OC)cc2c1NC(=O)CN1CCSCC1 |  | inconclusive [inhibitor, partial curve] |
| COCCCNC(=O)c1ccc(-n2nc(C(F)(F)F)cc2-c2cccs2)cc1 |  | active: 20 µM |
| CCCOc1ccc(N2CC(C(=O)Nc3ccccc3C(=O)NC)CC2=O)cc1 (stereo unspecified) |  | inactive |
| CC(=O)Nc1ccc(NC(=O)C/C(C)=N/NC(N)=S)cc1 |  | active: 22.4 µM |
| Cc1ccc(/C=C/C(=O)Nc2ccc([N+](=O)[O-])c(NC(=O)/C=C/c3ccc(C)o3)c2)o1 |  | inconclusive [inhibitor, single point] |
| CCOC(=O)c1sc(NC(C)=O)c(C(=O)OCC)c1C |  | inconclusive [inhibitor, single point] |
| O=C(O)c1ccc(N2CCCCC2)cc1 |  | inactive |
| Oc1ccc(NCc2ccccc2OCc2ccccc2F)cc1 |  | active: 17.8 µM |
| Cc1ccc(OCCCCn2cnc3ccccc32)c(C)c1 |  | inconclusive [inhibitor, single point] |
| Cc1ccc2nc(-c3sc4nc(C)ccc4c3N)[nH]c2c1 |  | inconclusive [inhibitor, single point] |
| Cc1ccccc1-n1c(Cn2c(=O)sc3ccccc32)nnc1SCC(=O)N1CCCC1 |  | inconclusive [inhibitor, single point] |
| CCN(c1cccc(C)c1)S(=O)(=O)c1ccc(OC)c([N+](=O)[O-])c1 |  | active: 25.1 µM |
| CSCc1nc2sc(C(=O)Nc3nc(C)cs3)c(C)c2c(=O)[nH]1 |  | inconclusive [inhibitor, partial curve] |
| Cc1cc(C(=O)CN2C(=O)CCC2=O)c(C)n1Cc1ccccc1 |  | active: 7.08 µM |
| CCn1c(SCC(=O)N2CCCC(C)C2)nnc1-c1ccc(S(=O)(=O)N2CCN(C)CC2)cc1 (stereo unspecified) |  | inconclusive [inhibitor, single point] |
| O=C(c1ccc(C(=O)N2CCOCC2)s1)N1CCOCC1 |  | inactive |

| SMILES | activity, negative = inhibition | Potency |
| --- | --- | --- |
| CC(=O)c1cccc(NS(=O)(=O)c2ccc(N/C=C\C(=O)c3ccc(C)cc3)cc2)c1 |  | inconclusive [inhibitor, single point] |
| CN(Cc1ccc2nonc2c1)Cc1nc(CC2CC2)no1 |  | inconclusive [inhibitor, single point] |
| Cc1ccc(-c2n[nH]c(=S)n2C)cc1 |  | inactive |
| CCn1nc(C)cc1C(=O)n1nc(C)c(Sc2ncccn2)c1C |  | inactive |
| C=C(C)CSc1nc(N)c(C#N)c(-c2ccc(C)cc2)c1C#N |  | active: 10 µM |
| COC(=O)c1c(NC(=O)CSc2nnc(CNc3ccc(Cl)cc3)o2)sc(C)c1C |  | inconclusive [inhibitor, single point] |
| O=C(NCCc1ccc(F)cc1)c1n[nH]c2ccccc12 |  | inactive |
| CCOC(=O)c1c(/N=C/C2C(=O)CC(C)(C)CC2=O)sc(C)c1C |  | active: 2.24 µM |
| COC(=O)c1nc2nc(-c3cccs3)cc(C(F)(F)F)n2n1 |  | inconclusive [inhibitor, partial curve] |
| COc1cccc2cc(-c3ccccc3)c(=O)oc12 |  | inactive |
| Cc1ccc(C2CC(C(F)F)n3ncc(C(=O)Nc4cnn(Cc5ccccc5C)c4)c3N2)cc1 (stereo unspecified) |  | inconclusive [inhibitor, partial curve, poor fit] |
| Fc1ccc(CSc2ccc(-c3ccc4c(c3)OCO4)nn2)cc1 |  | inconclusive [inhibitor, single point] |
| COc1ccc(CC(=O)O/N=C(\N)Cc2ccc(OC)cc2)cc1 |  | inconclusive [inhibitor, single point] |
| Nc1c(C(=O)NCc2ccc3c(c2)OCO3)c2nc3ccccc3nc2n1CCCN1CCOCC1 |  | inconclusive [inhibitor, partial curve] |
| CCCN1CCN(C(c2cc3cc(OCC)ccc3[nH]c2=O)c2nnnn2C2CCCCC2)CC1 (stereo unspecified) |  | inconclusive [inhibitor, single point] |
| CC(C)(C)c1ccc(NC(=O)c2ccccc2)c([N+](=O)[O-])c1 |  | inactive |
| C/C(=N/OC(=O)C1CC12CCC2)c1ccc(Br)cc1 (stereo unspecified) |  | inconclusive [inhibitor, single point] |
| COCCn1c(C)cc(C2=NNC(=NC3CC3)SC2)c1C |  | inactive |
| O=C(O)CCn1nnc2ccccc21 |  | inactive |
| CCNc1ncc2nc(CCc3ccccc3)c(=O)n(Cc3cccc(OC)c3)c2n1 |  | inconclusive [inhibitor, partial curve] |
| C=CCC(=O)OCC(=O)Nc1ccc(Oc2ccccc2)cc1 |  | inconclusive [inhibitor, single point] |
| O=C(OCCCCN1C(=O)c2ccccc2C1=O)c1ccc(S(=O)(=O)N2CCCC2)cc1 |  | inconclusive [inhibitor, single point] |
| C/C=C/c1ccc(OCCOc2cc(C=O)ccc2OC)c(OC)c1 |  | inactive |
| CC(=O)c1c(C)[nH]c(C(=O)COC(=O)c2ccc3c(=O)n4c(nc3c2)CCC4)c1C |  | inconclusive [inhibitor, partial curve] |
